Source: PubChem BioAssay AID924 (National Center for Advancing Translational Sciences (NCATS), 2007)
Out of some 130,000 compounds screened, about 1,200 (0.92%) were called active. Inconclusive means that the source gave no clear call. Such entries were picked first, then a sample of the others. Calls come from the whole dose curve; as a rule, active = well fitted cell-killing curve with a large enough effect; inconclusive = small, poorly fitted or top-dose-only effect; inactive = no such curve, though single readings can be large or run the other way. Potencies beside an inconclusive call are fits to weak or partial responses and may not hold up.

Assay: qHTS Screen for Compounds that Selectively Target Cancer Cells with p53 Mutations: Cytotoxicity of p53ts Cells at the Permissive Temperature; note: nearly all actives have a fitted effect of over 55% in size;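 for activity change, negative = cytotoxicity: 0% = DMSO and -100% = full killing by reference compound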
Details: H1299-p53A138V at 32C, ATP luminescence viability, 24 h; activity change, negative = cytotoxicity: at 46.1 µM (top of the series)
In short: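 Cells: H1299 p53ts (A138V), 600/well, pre-incubated 16–30 h at 37C. Cpd up to 46 uM, 24 h, 32C. Readout: ATPlite luminescence, 20 min RT. Normalization: DMSO vs tamoxifen 100 uM. AC50 by Hill equation.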
Potency is the fitted concentration of half-maximal effect; tags give direction and shape of the fitted curve.

| SMILES | Potency | activity change, negative = cytotoxicity |
| --- | --- | --- |
| O=C1c2ccccc2C(=O)N1c1cccc(-c2nc3ccccc3o2)c1 | inconclusive: 20 µM [cytotoxic, single point] |  |
| O=c1cc(-c2ccccc2)[nH]n1-c1nc2ccccc2s1 | inconclusive: 10 µM [cytotoxic, partial curve] |  |
| Cc1nc2c(ccc3nc(NC(=O)c4ccc5c(c4)OCCO5)sc32)s1 | active: 3.98 µM |  |
| CC1=C(C(=O)OC2CCCCCC2)C(c2c(Cl)cccc2Cl)CC(=O)N1 (stereo not given) | inconclusive: 31.6 µM [cytotoxic, single point] |  |
| CCCN(C(=O)Cn1nc(Cc2cccnc2)c2ccccc2c1=O)c1ccc(C(C)C)cc1 | inconclusive: 31.6 µM [cytotoxic, single point] |  |
| CCOc1ccc(CCNC(c2nnc(-c3ccccc3)o2)c2ccccc2Cl)cc1OCC (stereo not given) | inconclusive: 35.5 µM [cytotoxic, single point] |  |
| O=C(C1CCN(S(=O)(=O)c2cccc3cccnc23)CC1)N1CCN(c2ccccn2)CC1 |  | inactive: -7.44% |
| O=C(O)CCSc1nnc(-c2ccc(Cl)cc2Cl)o1 | active: 12.6 µM |  |
| CCOc1ccccc1CNC(=O)c1cc2oc3ccccc3c2n1CC | inconclusive: 5.01 µM [cytotoxic, full curve] |  |
| Cc1c(NC(=O)c2ccc(-c3ccc(F)cc3)o2)cccc1-c1nc2ncccc2o1 | inconclusive: 10 µM [cytotoxic, partial curve, poor fit] |  |
| CC(CNC(=O)c1cc2ccccn2n1)c1ccccc1 (stereo not given) |  | inactive: -3.17% |
| CSc1cccc(NC(=O)N2CCN(S(=O)(=O)c3ccc4c(ccn4C)c3)CC2)c1 |  | inactive: 16.5% |
| CC(=O)O[C@@H]1CC[C@]2(C)C(=C[C@@H]([C@@H]3C=C4C[C@@H](OC(C)=O)CC[C@]4(C)C4=C3[C@H]3C[C@@H]5O[C@@]6(CC[C@H](C)CO6)[C@@H](C)[C@@H]5[C@@]3(C)CC4)C3=C2CC[C@@]2(C)[C@H]4[C@@H](C)[C@]5(CC[C@H](C)CO5)O[C@@H]4C[C@H]32)C1 |  | inactive: 9.03% [at 9.22 µM] |
| O=C(CSc1nc(O)cc(=O)[nH]1)C1CC1 |  | inactive: 16.6% |
| CN(C)c1ccc(-c2nc(NCCc3cnc[nH]3)c3ccccc3n2)cc1 | active: 5.01 µM |  |
| COc1cccc(NC(=O)c2oc3ccc(S(=O)(=O)N4CCC5(CC4)OCCO5)cc3c2C)c1 |  | inactive: 23.1% |
| CCCSc1nc2c(c(=O)[nH]1)C(c1ccc(O)c(OCC)c1)CC(=O)N2 (stereo not given) | inconclusive: 5.62 µM [cytotoxic, single point] |  |
| CCN(CCCCOC(=O)c1ccc(OC)c(OC)c1)C(C)Cc1ccc(OC)cc1 (stereo not given) |  | inactive: -4.52% |
| COC(=O)c1sc2ccccc2c1NC(=O)c1coc2ccccc2c1=O | inconclusive: 0.0501 µM [cytotoxic, full curve, poor fit] |  |
| ICCc1ccccc1 |  | inactive: -16.5% [at 1.84 µM] |
| O=C(c1cc(O)c(O)c([N+](=O)[O-])c1)c1ccccc1F | inconclusive: 15.8 µM [cytotoxic, partial curve] |  |
| CCc1ccc(C(=O)c2cn(Cc3ccccc3)c3cc(OC)c(OC)cc3c2=O)cc1 |  | inactive: 1.14% |
| O=C(Nc1ccccc1-c1nc2ccccc2s1)c1ccco1 | inconclusive: 12.6 µM [cytotoxic, partial curve, poor fit] |  |

| SMILES | Potency | activity change, negative = cytotoxicity |
| --- | --- | --- |
| Cc1ccc(CNC(=O)c2ccc(NC(=O)c3nsc4ccccc34)cc2)cc1 |  | inactive: -7.66% |
| CCCOc1ccc(CNC(=O)c2cc3oc4ccccc4c3n2C)cc1 | inconclusive: 1.26 µM [cytotoxic, full curve, poor fit] |  |
| Cc1ccc(-n2ncc3c(N4CCCCC4)ncnc32)cc1 | active: 1.58 µM |  |
| O=C1C=C(NCCc2cc(Br)c(O)c(Br)c2)C(=O)c2ncccc21 | inconclusive: 3.98 µM [cytotoxic, single point] |  |
| Cc1cc(C(=O)Nc2nnc(-c3ccccc3)s2)no1 | inconclusive: 20 µM [cytotoxic, partial curve] |  |
| Cc1cccc(N2CCN(c3ncnc4c3cnn4-c3ccc(Cl)cc3)CC2C)c1 (stereo not given) | inconclusive: 25.1 µM [cytotoxic, single point] |  |
| CC1CC(=O)N(CC(=O)Nc2ccc(OC(F)(F)F)cc2)c2ccccc2S1 (stereo not given) |  | inactive: -10.9% |
| O=C(NCC1CCCO1)c1sc2cc(Cl)ccc2c1Cl (stereo not given) | inconclusive: 11.2 µM [cytotoxic, single point] |  |
| COC(=O)Cc1c(C)c2ccc(OCC(C)=O)c(C)c2oc1=O | inconclusive: 12.6 µM [cytotoxic, partial curve] |  |
| Cc1cc(C(=O)CN2C(=O)C3CC=CCC3C2=O)c(C)n1-c1ccccc1 (stereo not given) | active: 10 µM |  |
| COc1ccc(C2CC(=O)N(CC(=O)Nc3ccc(C(C)=O)cc3)c3ccccc3S2)cc1OC (stereo not given) | inconclusive: 25.1 µM [cytotoxic, single point] |  |
| O=C(C(c1ccccc1)c1ccccc1)N1CCN(CCN2C(=O)c3cccc4cccc(c34)C2=O)CC1 | inconclusive: 0.02 µM [cytotoxic, full curve, poor fit] |  |
| CCc1nn(CC(=O)NCCCOC)c(=O)c2cc3ccccc3n12 |  | inactive: -0.119% |
| CCOC(=O)c1ccc(NC(=O)c2nc(SCc3ccccc3F)ncc2Cl)cc1 | inconclusive: 25.1 µM [cytotoxic, single point] |  |
| Cc1ccccc1CNc1ncnc2c1ncn2[C@@H]1O[C@@H](CO)[C@H](O)[C@@H]1O |  | inactive: -11.9% |
| Cc1n[nH]c(=S)n(/N=C/c2ccccn2)c1=O | inconclusive: 25.1 µM [cytotoxic, single point] |  |
| CCCCC(CC)CN=C(N)NC(N)=NCCCCCCN=C(N)NC(N)=NCC(CC)CCCC (stereo not given) | active: 15.8 µM |  |
| Cn1c(=O)n(CCc2ccccc2)c(=O)c2c1nc1n2CCCN1CCc1ccccc1 | inconclusive: 31.6 µM [cytotoxic, single point] |  |
| Cc1ccc(S(=O)(=O)N2CCOCC2)cc1C(=O)OCC(=O)N1CCc2ccccc2C1 |  | inactive: -5.77% |
| COc1ccc(-c2cc(C(F)(F)F)nc(SCCC(=O)Nc3cccc(O)c3)n2)cc1 | inconclusive: 35.5 µM [cytotoxic, single point] |  |
| CCN1CCN(c2c(Cl)cccc2NC(=O)c2ccco2)CC1 |  | inactive: 1.19% |
| COc1ccccc1CNC(=O)c1cc2cc(C)ccc2n1C | inconclusive: 3.16 µM [cytotoxic, full curve] |  |
| COc1cc(CNc2ccc3[nH]c(=O)[nH]c3c2)cc(Br)c1OCc1ccc(F)cc1 | inconclusive: 20 µM [cytotoxic, partial curve] |  |

| SMILES | Potency | activity change, negative = cytotoxicity |
| --- | --- | --- |
| CC(=O)c1ccc(NC(=O)c2nc3ccccc3n(C)c2=O)cc1 | active: 2.51 µM |  |
| CC1=CC(C)(C)N2C(=O)C3(N=C(N)NC(Nc4ccccc4)=N3)c3cc(C)cc1c32 (stereo not given) | inconclusive: 31.6 µM [cytotoxic, single point] |  |
| c1c2c(cc3sc(N4CCCCC4)nc13)OCO2 | active: 6.31 µM |  |
| CC(C)=CCc1c2c(c3occ(-c4ccc(O)c(O)c4)c(=O)c3c1O)C=CC(C)(C)O2 | inconclusive: 31.6 µM [cytotoxic, single point] | inactive: 12.3% [at 9.22 µM] |
| Clc1ccc(CNc2cc(-c3ccccc3)nc3nncn23)cc1 | inconclusive: 31.6 µM [cytotoxic, single point] |  |
| CN(C)c1ccc(NC(=O)CN2CCN(CC(=O)Nc3ccc(Br)cc3)CC2)cc1 |  | inactive: -2.72% |
| O=C1c2ccccc2C(Nc2ccc3c(c2)OCO3)N1Cc1ccco1 (stereo not given) |  | inactive: 5.35% |
| COc1ccc(NC(=O)Nc2cccc(-c3cn4cccnc4n3)c2)cc1 | inconclusive: 2 µM [cytotoxic, full curve] |  |
| Oc1cccc(/C=N/c2c(-c3ccco3)nc3ccccn23)c1 | inconclusive: 20 µM [cytotoxic, single point] |  |
| O=c1[nH]c(CSc2ncc(-c3ccc(F)cc3)n2Cc2ccco2)nc2ccccc12 | inconclusive: 25.1 µM [cytotoxic, single point] |  |
| CCOc1ccc(-c2nnc(-c3ccco3)o2)cc1OCC |  | inactive: 0.16% |
| COc1ccc(-c2cc(C(=O)N3CCN(c4ccc(F)cc4)CC3)no2)cc1OC | inconclusive: 31.6 µM [cytotoxic, single point] |  |
| COc1cccc(CNS(=O)(=O)c2ccc(N3CCCCS3(=O)=O)cc2)c1 |  | inactive: -7.6% |
| COc1ccc(C(=O)Nc2nnc(S(=O)(=O)N3CCC(C)CC3)s2)cc1OC | inconclusive: 12.6 µM [cytotoxic, partial curve] |  |
| O=C(O)C1=CC(=C(c2ccc(O)c(C(=O)O)c2)c2ccc(O)c(C(=O)O)c2)C=CC1=O | inactive |  |
| CC(C)(C)c1ccc(-c2nc(S(=O)(=O)c3ccccc3)c(N3CCOCC3)o2)cc1 | inconclusive: 7.94 µM [cytotoxic, partial curve] |  |
| CCOc1ccc2nc(NC(=O)COC)sc2c1 | inconclusive: 12.6 µM [cytotoxic, partial curve] |  |
| COc1ccc(NC(=O)C(=O)NCC(c2cccnc2)N2CCc3ccccc3C2)cc1 (stereo not given) | inconclusive: 2.82 µM [cytotoxic, full curve, poor fit] |  |
| COc1ccc(C(=O)NNc2ncnc3c2cnn3-c2ccccc2)cc1 |  | inactive: -6.45% |
| CCc1nc(Nc2ccc(N3CCN(C(C)=O)CC3)cc2)c2oc3ccccc3c2n1 | inconclusive: 31.6 µM [cytotoxic, single point] |  |
| N=c1n(CCO)c2ccccc2n1CCOc1ccc(Cl)cc1Cl | inconclusive: 25.1 µM [cytotoxic, single point] |  |
| COc1ccc(-c2nnc(Nc3nc4c(OC)cccc4s3)o2)cc1 | inconclusive: 20 µM [cytotoxic, partial curve] |  |
| O=C(NC1=NCCS1)c1ccc(OCC2CCCO2)cc1 (stereo not given) | inconclusive: 25.1 µM [cytotoxic, single point] |  |
